Test results published in the BET-seq Pho4 binding data (Le et al. 2018).
Some of the results follow. Values were computed here from the reads of four pooled replicates and scatter widely.

Target: T1, Pho4 (S. cerevisiae) (UniProt P07270)
T1 sequence: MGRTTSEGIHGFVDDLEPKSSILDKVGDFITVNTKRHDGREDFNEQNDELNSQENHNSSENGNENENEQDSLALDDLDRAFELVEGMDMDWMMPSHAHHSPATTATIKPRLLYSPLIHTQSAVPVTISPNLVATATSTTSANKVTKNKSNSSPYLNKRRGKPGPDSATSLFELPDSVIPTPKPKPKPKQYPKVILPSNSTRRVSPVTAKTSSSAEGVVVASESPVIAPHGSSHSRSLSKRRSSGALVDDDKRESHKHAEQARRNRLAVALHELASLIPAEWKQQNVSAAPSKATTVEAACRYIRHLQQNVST
Test: relative binding free energy (BET-seq); higher = weaker binding
Settings: reference: library average

Sequence	relative binding free energy [kcal/mol]
AAGCACACGTGGGTTT	0.03
TACTGCACGTGTGGGT	-0.01
TCGGGCACGTGGAGGA	-0.05
GTTGCCACGTGTTTTT	0
AGTGGCACGTGGGCGG	-0.22
GGGATCACGTGGTGTC	0.08
TAAGTCACGTGGCGGT	0.04
TGGTTCACGTGGATAA	0.3
TTTATCACGTGCCGTG	0.14
GTTTTCACGTGTTAAA	0.22
CTTGGCACGTGTTTCG	-0.05
GGTCTCACGTGTGGTA	0.26
ACTGGCACGTGGGTCG	-0.14
GGTGGCACGTGTCTTT	0.04
TAATACACGTGCAGTT	0.15
TTTTACACGTGGCTTT	-0.06
ATTATCACGTGAGTCG	0.29
GGGAGCACGTGTGGCT	-0.12
GGTGTCACGTGCATTT	0.22
AATAGCACGTGAAGGT	0.2
TGCGGCACGTGAAATG	0.09
GCTTTCACGTGGTATG	0.25
TTCTGCACGTGGGGCG	-0.18

Sequence	relative binding free energy [kcal/mol]
ATGAGCACGTGAGTTT	0.09
GAATTCACGTGTTGAT	0.4
TCGCTCACGTGGGGTG	0.16
ATGGGCACGTGGCGCT	-0.23
TTGGGCACGTGCAGGT	-0.16
GTGCGCACGTGGGACG	-0.2
GTTAGCACGTGTTAGG	0.05
GATATCACGTGGGTCT	0.06
GATGTCACGTGGATAG	0.28
GGGTCCACGTGGGGAG	-0.07
TAAGGCACGTGTCGCT	-0.06
TATTGCACGTGAATCT	0.24
ATGGACACGTGGAGAG	0.01
TATTGCACGTGGGGAA	-0.28
TGTCGCACGTGTGGAT	0.05
AGGGTCACGTGAAGAA	0.33
GTGGTCACGTGATATA	0.21
TCAGCCACGTGTGGTG	-0.01
TAAGGCACGTGGTTGC	-0.14
CTTCGCACGTGTGTGT	-0.11
TGTTTCACGTGGCCAT	0.23
TGGGCCACGTGAGATA	0.15
TGGAACACGTGATGGG	0.22

Sequence	relative binding free energy [kcal/mol]
AGGCACACGTGGGGGA	-0.2
TTGCTCACGTGTGTAG	0.21
TTGGTCACGTGGACAG	0.17
TTCATCACGTGGTTGG	0.08
TTAGGCACGTGTGTCA	-0.12
GTAGTCACGTGTAATG	0.11
TGTCGCACGTGTGGGT	-0.02
GGACGCACGTGGTGGT	-0.07
TAGATCACGTGGAGTT	0.15
GAGGGCACGTGTTGTG	-0.07
TTAATCACGTGCGTTT	0.12
GCTCACACGTGGGGTG	-0.01
GGGGTCACGTGTAAAC	0.25
AGATGCACGTGGTTGT	-0.09
CAATGCACGTGTGTAG	0.12
AAAGACACGTGAGGGG	0.25
TAGGGCACGTGACTGC	0.04
AGTACCACGTGTTGGG	-0.05
TAAGACACGTGGGAAG	0.01
CTGTACACGTGTTCGG	0
TTTCCCACGTGGTGGG	-0.16
TTTTGCACGTGGGACG	0.06
AAAGTCACGTGGTGCG	-0.02

Sequence	relative binding free energy [kcal/mol]
TGTGACACGTGGGCGG	-0.23
TTGGACACGTGATCTG	0.08
TTCGGCACGTGGTGAG	-0.07
TGGTGCACGTGCGAGC	0.03
ACGGTCACGTGGAGGG	0.02
ATGGTCACGTGGGGCC	0.03
TGCTTCACGTGGTTGG	0.24
TAGAGCACGTGGATGG	-0.05
TGGTGCACGTGCGTCG	-0.16
TAGGACACGTGTATCG	0.09
TGACTCACGTGGAGGT	0.1
TGCAACACGTGTTTTT	0.12
AGAGGCACGTGCCGTG	-0.17
ATTGGCACGTGGGTGA	-0.2
TGAGACACGTGCGGAG	-0.04
TTTATCACGTGTGGAC	0.3
TTCATCACGTGTGGGA	0.2
GTTTACACGTGTGAGC	0.2
GGGTACACGTGCGGGT	0.07
CACAGCACGTGTGGTG	-0.03
TAAATCACGTGGTTGG	0.09
TAACGCACGTGGTTGG	-0.21
CGGCTCACGTGGAGTG	0.2

Sequence	relative binding free energy [kcal/mol]
GATGGCACGTGATATT	0.18
GCTGTCACGTGCTGGA	0.15
AGGTACACGTGTTGGC	0.07
CTTTTCACGTGTAGTG	0.12
GGGGGCACGTGCTAAT	-0.12
TCGTACACGTGGGGGT	-0.06
TTTTACACGTGGCTAT	0.07
GGTTGCACGTGTGAAG	0.19
CTGTTCACGTGTCGGG	0.1
ATAATCACGTGCAGGT	0.11
ATAGTCACGTGGGTAC	-0.03
GTAGACACGTGTTCAG	0.12
GAGGTCACGTGGAGTC	0.21
GATAGCACGTGTAGGC	0.1
GAAAACACGTGGGAGT	0.12
TGAGACACGTGTTATT	-0.04
AGTTGCACGTGATTTT	0.16
GAGGGCACGTGATGGA	0.04
TATTTCACGTGATTGT	0.43
GAAGTCACGTGTGGAT	0.12
GGATACACGTGGTAGT	0.07
GCGAGCACGTGTGGTG	-0.04
AAGAGCACGTGGTATT	-0.21
